Here are results for one compound from patent US20100087406A1, “INDUCTION OF INNATE IMMUNITY BY VITAMIN D3 AND ITS ANALOGS” (CEDARS-SINAI MEDICAL CENTER, priority 2004, published 2010).

The subject of assay [1] is CAMP. Put plainly: Induction of CAMP mRNA in bone marrow cells of an AML patient (QRT-PCR). Particulars: AML BM cells, 24 h, listed as Vitamin D3.
Assay [2] deals with CAMP. Particulars: purified monocytes, neutrophils, cell lines from lung and head and neck squamous cell carcinomas; cited from earlier work.
Assay [3] relates to defB2. Particulars: purified monocytes, neutrophils, cell lines from lung and head and neck squamous cell carcinomas; cited from earlier work.

With `C=C1/C(=C\C=C2/CCC[C@]3(C)[C@@H]([C@H](C)CCCC(C)(C)O)CC[C@@H]23)C[C@@H](O)C[C@@H]1O` [1,25(OH)2D3, 1,25-dihydroxyvitamin D3], the “dose dependence of CAMP mRNA induction” value in assay [1] is reported as “induced CAMP mRNA expression in a dose-dependent manner”. The “induction of CAMP gene” value in assay [2] was “observed induction of both CAMP and defB2 genes”. In addition, the “induction of defB2 gene” value in assay [3] is “observed induction of both CAMP and defB2 genes”.
